Not every detail of the peptide structures is certain; ends, links or a residue may be inferred. Numbered stars: 1 amine (or outer) side, 2 acyl side, 3 side chain; on linkers, the order of the positions; unused ones are H or OH. Bridge positions count the residues as written; N and C are the ends. Square brackets hold non-standard residues; d marks the D form. Peptide text beside a SMILES is read from it. Trp(7-OMe) = COc1cccc2c(C[C@H](N)C(=O)O)c[nH]c12; His(π-Bom) = N[C@@H](Cc1cncn1COCc1ccccc1)C(=O)O; Trp(7-Me) = Cc1cccc2c(C[C@H](N)C(=O)O)c[nH]c12; Abu(4-yl) = O=C([C@H](CC[*:3])N[*:1])[*:2]; 2Nal = N[C@@H](Cc1ccc2ccccc2c1)C(=O)O; AEF = NCCOc1ccc(C[C@H](N)C(=O)O)cc1; Cit = NC(=O)NCCC[C@H](N)C(=O)O; Pen = CC(C)(S)[C@H](N)C(=O)O; αMeK = C[C@](N)(CCCCN)C(=O)O; Aib = CC(C)(N)C(=O)O
Tests used:
NK cells = assay: NK cell based assay (IL-23/IL-18-induced IFNγ, Quantikine ELISA); conditions: human primary NK cells, IL-23 at EC50 to EC75 + IL-18 10 ng/mL, IFNγ after 20 to 24 hours
Method: killer (NK) cells, purified from human peripheral blood of healthy donors by negative selection (Miltenyi Biotech, Cat #130-092-657), were cultured in complete media (RPMI 1640 containing […], L-glutamine and penicillin-streptomycin) in the presence of IL-2 (RnD, Cat #202-IL-010/CF) at 25 ng/mL. After 7 days, cells were centrifuged, and resuspended in complete media at IE6 cells/mL. […] After 20 to 24 hours, IFNγ in the supernatant was quantified using Quantikine ELISA (RnD, Cat #DIF50).

IL-23R = molecular target: T1, IL-23R (Homo sapiens, UniProt Q5VWK5); assay: DB cells IL23R pSTAT3 cell assay (pStat3 HTRF); assay type: cell-based; conditions: Table E3, IL-23 0.5 nM, 30 minutes at 37° C.
T1 sequence (Q5VWK5 24-629): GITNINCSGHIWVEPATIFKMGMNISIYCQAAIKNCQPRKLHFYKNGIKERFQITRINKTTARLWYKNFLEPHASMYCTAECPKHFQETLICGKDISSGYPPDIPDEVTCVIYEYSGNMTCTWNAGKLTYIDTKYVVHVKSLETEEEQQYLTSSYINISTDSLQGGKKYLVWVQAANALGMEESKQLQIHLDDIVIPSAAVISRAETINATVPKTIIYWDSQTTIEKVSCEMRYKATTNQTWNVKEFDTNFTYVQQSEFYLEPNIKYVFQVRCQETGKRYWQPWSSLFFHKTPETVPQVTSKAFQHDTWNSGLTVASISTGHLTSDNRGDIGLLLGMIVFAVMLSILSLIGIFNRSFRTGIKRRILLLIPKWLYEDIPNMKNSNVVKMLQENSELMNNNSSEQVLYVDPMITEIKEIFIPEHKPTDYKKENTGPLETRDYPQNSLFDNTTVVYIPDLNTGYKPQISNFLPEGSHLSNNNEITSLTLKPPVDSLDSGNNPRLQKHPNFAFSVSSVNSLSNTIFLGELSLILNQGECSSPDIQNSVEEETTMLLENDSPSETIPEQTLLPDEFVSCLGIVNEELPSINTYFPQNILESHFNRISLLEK
Source text: Human ELISA indicates the IL23-IL23R competitive binding assay described below, Rat ELISA indicates the rat IL-23R competitive binding ELISA assay described below, and pStat3HTRF indicates the DB cells IL-23R pSTAT3 cell assay described below. The peptides depicted in Table E1 are cyclized via a disulfide bridge formed between two Pen residues in these peptides. The peptides depicted in Table E2 are cyclized via a thioether bond between the indicated amino acid residues. Table E2 provides an illustrative structure depicting thioether cyclization, which is indicated in the table by the term “cyclo,” with the cyclic region bracketed immediately following the term “cyclo.” For certain peptides, the residue Abu is present where indicated, whereas in other embodiments, e.g., those related to the non-cyclized form, the Abu may be referred to as a hSer(Cl) or homoSer residue.
DB Cells IL23R pSTAT3 Cell Assay
IL-23 plays a central role in supporting and maintaining Th17 differentiation in vivo. This process is thought to be mediated primarily through the Signal Transducer and Activator of Transcription 3 (STAT3), with phosphorylation of STAT3 (to yield pSTAT3) leading to upregulation of RORC and pro-inflammatory IL-17. This cell assay examines the levels of pSTAT3 in IL-23R-expressing DB cells when stimulated with IL-23 in the presence of test compounds. Serial dilutions of test peptides and IL-23 (Humanzyme #HZ-1261) at a final concentration of 0.5 nM, were added to each well in a 96 well tissue culture plate (Corning #CLS3894). DB cells (ATCC #CRL-2289), cultured in RPMI-1640 medium (Thermo Scientific #11875093) supplemented with 10% FBS, were added at 5×10E5 cells/well and incubated for 30 minutes at 37° C. in a 5% CO2 humidified incubator. Changes in phospho-STAT3 levels in the cell lysates were detected using the Cisbio HTRF pSTAT3 (Tyr705) Cellular Assay Kit (Cisbio #62AT3PEH), according to manufacturer's Two Plate Assay protocol.

Row | SMILES | IC50 (NK cells) [µM] | IC50 (IL-23R) [µM]
1 | CC(=O)NCCCC[C@@H]1NC(=O)[C@H](Cc2c[nH]c3c(C)cccc23)NC(=O)[C@H]([C@@H](C)O)NC(=O)[C@H](CC(N)=O)NC(=O)[C@@H](NC(C)=O)C(C)(C)SSC(C)(C)[C@@H](C(=O)N[C@@H](Cc2ccc(OCCN)cc2)C(=O)N[C@@H](Cc2ccc3ccccc3c2)C(=O)N[C@@](C)(CCCCN)C(=O)N[C@@H](CCCCNC(C)=O)C(=O)N[C@@H](CC(N)=O)C(=O)N[C@H](Cc2ccccc2)C(N)=O)NC1=O [compound 258] | < 0.01 | < 0.001
2 | CC(=O)NCCCC[C@H](NC(=O)[C@](C)(CCCCN)NC(=O)[C@H](Cc1ccc2ccccc2c1)NC(=O)[C@H](Cc1ccc(OCCN)cc1)NC(=O)[C@H]1NC(=O)[C@H](CCCCNC(=O)C(C)(C)N)NC(=O)[C@H](Cc2c[nH]c3c(C)cccc23)NC(=O)[C@H]([C@@H](C)O)NC(=O)[C@H](CC(N)=O)NC(=O)[C@@H](NC(C)=O)C(C)(C)SSC1(C)C)C(=O)N[C@@H](CC(N)=O)C(=O)N[C@H](CC(C)C)C(N)=O [compound 322] | < 0.01 | < 0.001
3 | CC(=O)NCCCC[C@H](NC(=O)C1(NC(=O)[C@H](Cc2ccc3ccccc3c2)NC(=O)[C@H](Cc2ccc(OCCN)cc2)NC(=O)[C@H]2NC(=O)[C@H](CCC(N)=O)NC(=O)[C@H](Cc3c[nH]c4c(C)cccc34)NC(=O)[C@H]([C@@H](C)O)NC(=O)[C@H](CC(N)=O)NC(=O)[C@@H](NC(C)=O)C(C)(C)SSC2(C)C)CCNCC1)C(=O)N[C@@H](CC(N)=O)C(=O)NCCC(N)=O [compound 275] | – | 0.001 to 0.01
4 | CC(=O)NCCCC[C@H](NC(=O)[C@](C)(CCCCN)NC(=O)[C@H](Cc1ccc2ccccc2c1)NC(=O)[C@H](Cc1ccc(OCCN)cc1)NC(=O)[C@H]1NC(=O)[C@H](CCCNC(N)=O)NC(=O)[C@H](Cc2c[nH]c3c(C)cccc23)NC(=O)[C@H]([C@@H](C)O)NC(=O)[C@H](CC(N)=O)NC(=O)[C@@H](NC(C)=O)C(C)(C)SSC1(C)C)C(=O)N[C@@H](CC(N)=O)C(=O)NC(C)(C)C(=O)N[C@H](CCCNC(=N)N)C(N)=O [compound 345] (Ac-[Pen]NT[Trp(7-Me)][Cit][Pen][AEF][2Nal][αMeK]K(Ac)N[Aib][dR]-NH2; disulfide 1-6) | – | < 0.001
5 | CC(=O)NCCCC[C@H](NC(=O)[C@](C)(CC(C)C)NC(=O)[C@H](Cc1ccc2ccccc2c1)NC(=O)[C@H](Cc1ccc(OCCN)cc1)NC(=O)[C@H]1NC(=O)[C@H](CCC(N)=O)NC(=O)[C@H](Cc2c[nH]c3c(C)cccc23)NC(=O)[C@H]([C@@H](C)O)NC(=O)[C@H](CC(N)=O)NC(=O)[C@@H](NC(C)=O)C(C)(C)SSC1(C)C)C(=O)N[C@@H](C(=O)NCCC(N)=O)[C@H](C)O [compound 218] | 0.011 to 0.1 | 0.01 to 0.1
6 | CC(=O)NCCCC[C@@H]1NC(=O)[C@H](Cc2c[nH]c3c(C)cccc23)NC(=O)[C@H]([C@@H](C)O)NC(=O)[C@H](CC(N)=O)NC(=O)[C@@H](NC(C)=O)C(C)(C)SSC(C)(C)[C@@H](C(=O)N[C@@H](Cc2cncn2COCc2ccccc2)C(=O)N[C@@H](Cc2ccc3ccccc3c2)C(=O)N[C@@](C)(CCCCN)C(=O)N[C@@H](CCCCNC(C)=O)C(=O)N[C@@H](CC(N)=O)C(=O)N[C@H](CC(C)C)C(N)=O)NC1=O [compound 291] (Ac-[Pen]NT[Trp(7-Me)]K(Ac)[Pen][His(π-Bom)][2Nal][αMeK]K(Ac)N[dL]-NH2; disulfide 1-6) | – | > 0.1
7 | COc1cccc2c(C[C@@H]3NC(=O)[C@H]([C@@H](C)O)NC(=O)[C@H](CC(N)=O)NC(=O)[C@@H](NC(C)=O)C(C)(C)SSC(C)(C)[C@@H](C(=O)N[C@@H](Cc4ccc(OCCN)cc4)C(=O)N[C@@H](Cc4ccc5ccccc5c4)C(=O)N[C@@](C)(CCCCN)C(=O)N[C@@H](CCCCNC(C)=O)C(=O)N[C@@H](CC(N)=O)C(=O)N[C@H](CCCCN)C(N)=O)NC(=O)[C@H](CCCNC(N)=O)NC3=O)c[nH]c12 [compound 300] (Ac-[Pen]NT[Trp(7-OMe)][Cit][Pen][AEF][2Nal][αMeK]K(Ac)N[dK]-NH2; disulfide 1-6) | – | > 0.1
8 | CC(=O)NCCCC[C@@H]1NC(=O)[C@H](Cc2c[nH]c3c(C)cccc23)NC(=O)[C@H]([C@@H](C)O)NC(=O)[C@H](CCC(N)=O)NC(=O)[C@@H](NC(=O)[C@@H](CCCNC(=N)N)NC(C)=O)CCSC[C@@H](C(=O)N[C@@H](Cc2ccc(OCCN)cc2)C(=O)N[C@@H](Cc2ccc3ccccc3c2)C(=O)N[C@@](C)(CCCCN)C(=O)N[C@@H](CCCCNC(C)=O)C(=O)N[C@@H](CC(N)=O)C(=O)N[C@H](CC(C)C)C(N)=O)NC1=O [compound 325] (Ac-[dR][Abu(4-yl)]QT[Trp(7-Me)]K(Ac)C[AEF][2Nal][αMeK]K(Ac)N[dL]-NH2; thioether 2-7) | 0.011 to 0.1 | 0.001 to 0.01

— patent US20260116921A1, “PEPTIDE INHIBITORS OF INTERLEUKIN-23 RECEPTOR AND THEIR USE TO TREAT INFLAMMATORY DISEASES” (priority 2018, published 2026)
